According to PubChem BioAssay AID686978 (National Center for Advancing Translational Sciences (NCATS), 2013):
Hit rate of the full screen: of about 420,000 compounds, about 64,000 (15%) were called active. This list was built around the results that the source calls inconclusive (neither active nor inactive); the mix of calls is not that of the screen. The call rests on the fitted dose curve; in most records, active means well fitted inhibition curve with a large enough effect; inconclusive means small, poorly fitted or top-dose-only effect; inactive means flat fitted curve, though single readings scatter. Potencies of inconclusive entries are left out as doubtful fits.
On the % scale 0 is the no-effect control and ±100 the full control effect; potency means the concentration at half of the fitted maximal effect; tags describe the fitted curve by direction and shape.

Assay: qHTS for Inhibitors of human tyrosyl-DNA phosphodiesterase 1 (TDP1): qHTS in cells in absence of CPT; further: nearly all actives have a fitted effect of over 55% in size
Details: DT40 Tdp1-/- hTDP1 cells, no CPT, ATP luminescence, 48 h; activity change, negative = growth inhibition: at 46.2 µM (top of the series) unless noted
Summary of the method: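 A cellular qHTS used chicken DT40 cells lacking endogenous Tdp1 but carrying stably transfected human TDP1. Compounds were applied without camptothecin, and cell growth kinetics were judged by ATP-dependent luminescence after ≥48 hr.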
In the case of `Cc1cccc(NC(=O)CN2CCCCCC2)c1`, the “activity change, negative = growth inhibition” value is reported as inactive: -15.2%.
For `Cc1cccc(C)c1NC(=O)CN(C)C(=O)c1ccccc1C(=O)N(C)Cc1ccccc1`, the Potency was inconclusive [inhibitor, single point].
With `CCOc1ccc(C2c3[nH]c4ccccc4c3CCN2Cc2cccn2-c2ncccn2)cc1` (configuration not stated) the Potency was active: 13 µM.
With `CCC(C)(C)n1nnnc1C(c1ccncc1)N1CCC(Cc2ccccc2)CC1` (configuration not stated) the Potency was inconclusive [inhibitor, single point].
In the case of `O=C(NC1CCCCC1)C(C1CC1)n1c(=O)c(-c2ccco2)nc2ccccc21` (configuration not stated), the Potency is reported as active: 10.3 µM.
In the case of `Cc1ccc2c(c1)S/C(=C/c1ccc[n+](C)c1)N2CCO`, the Potency is reported as active: 2.59 µM.
For `COc1ccc(N(C)C(=O)C2CCCN2S(=O)(=O)c2cccc3nsnc23)cc1` (configuration not stated), the “activity change, negative = growth inhibition” value was inactive: 13.8%.
With `COc1ccc(N2CCN(C(=O)C3Cc4ccccc4CN3C(=O)c3ccccc3)CC2)cc1` (configuration not stated) the Potency was inconclusive [inhibitor, partial curve].
In the case of `Cc1nnc(NC(=O)Nc2ccc(Cl)c(Cl)c2)s1`, the Potency is reported as inconclusive [inhibitor, single point].
With `Cn1ccc2c(/C=C/c3ccc(F)cc3)cc3c(c21)C1CCC3C1` (configuration not stated) the Potency was inconclusive [inhibitor, single point].
With `COc1ccc(C(=O)NNC(=O)CSc2nnnn2-c2cc(OC)cc(OC)c2)cc1` the “activity change, negative = growth inhibition” value was inactive: -29%.
In the case of `COc1ccccc1CN1CCc2c([nH]c3ccccc23)C1`, the Potency is reported as inconclusive [inhibitor, single point].
For `O=c1[nH]c2cc3c(cc2cc1CN(Cc1ccccc1)Cc1nnnn1Cc1ccco1)OCCO3`, the Potency was inconclusive [inhibitor, partial curve].
In the case of `COC(=O)c1ccccc1NC(=O)c1ccc(COc2ccc(C)c(C)c2)o1`, the Potency is reported as active: 13 µM.
With `O=C(CSc1nnnn1Cc1ccccc1)Nc1cccc(F)c1` the Potency was inconclusive [inhibitor, single point].
With `Clc1ccc(-c2cnn3c(-c4ccncc4)ccnc23)cc1` the Potency was inconclusive [inhibitor, single point].
In the case of `O=C(C(=O)N1CCN(c2ccccc2)CC1)c1cn(CC(=O)N2CCCCCC2)c2ccccc12`, the Potency is reported as inconclusive [inhibitor, single point].
For `COC(=O)c1cc(S(=O)(=O)NCC2CCN(Cc3ccc(C)cc3)CC2)cn1C`, the Potency was inconclusive [inhibitor, single point].
With `Cc1cc(C)nc(/N=C(\N)N2CCCCCC2)n1` the Potency was inconclusive [inhibitor, full curve].
In the case of `CCc1nc(CN2CCN(c3ccc(C(F)(F)F)cn3)CC2)c(C)[nH]1`, the Potency is reported as active: 6.51 µM.
For `C(=N\n1c2ccccc2c2ccccc21)/c1ccccc1`, the Potency was inconclusive [inhibitor, single point].
For `NC(c1csc(Nc2ccc(C(=O)NCCO)cc2)n1)C1CCCCC1` (configuration not stated), the Potency was active: 6.51 µM.
For `COC(=O)c1[nH]c2ccccc2c1NC(=O)CN1CCN(c2cccc(Cl)c2)CC1`, the Potency was active: 16.4 µM.
In the case of `CCOc1ccc(CNC(=O)CCCn2nc(C)c3sc4ccccc4c3c2=O)cc1`, the Potency is reported as inconclusive [inhibitor, single point].
With `CC1Sc2ccc(S(=O)(=O)N3CCC(C(=O)NCC(C)c4ccccc4)CC3)cc2NC1=O` (configuration not stated) the Potency was inconclusive [inhibitor, partial curve].
With `O=S(=O)(Nc1ccc2ccccc2c1)N1CCCCC1` the Potency was inconclusive [inhibitor, single point].
For `Cc1c(Cl)cccc1NC(=O)Cn1nnc(C(=O)NCc2cccs2)c1N`, the Potency was active: 1.64 µM.
In the case of `Cc1ccc(N2C(=O)c3ccccc3C2Nc2ccccc2)nc1` (configuration not stated), the Potency is reported as inconclusive [inhibitor, single point].
With `Cn1c(=O)c2c(nc(CCC3CCCC3)n2C)n(C)c1=O` the Potency was inconclusive [inhibitor, partial curve].
In the case of `O=C(N/N=C/c1ccc[nH]1)c1ccccc1OCc1ccc(F)cc1`, the “activity change, negative = growth inhibition” value is reported as inactive: 2.5%.
With `COc1ccc(S(=O)(=O)Nc2ccc(S(=O)(=O)NCC3CCCO3)cc2)cc1` (configuration not stated) the “activity change, negative = growth inhibition” value was inactive: 6.56%.
With `CCOC(=O)c1cc(C#N)c(SC)nc1C` the “activity change, negative = growth inhibition” value was inactive: 9.56%.
With `CCCOc1ccc(-c2nn(-c3ccccc3)cc2C2NC(=O)NC(C)=C2C(=O)OC)cc1` (configuration not stated) the Potency was active: 16.4 µM.
In the case of `CC(=O)N1CCSc2ccc(S(=O)(=O)NCc3ccc(F)cc3)cc21`, the Potency is reported as inconclusive [inhibitor, single point].
With `CCc1c(C(=O)Nc2ccccc2C(N)=O)csc1C` the “activity change, negative = growth inhibition” value was inactive: -10.8%.
In the case of `COc1ccc(NC(=O)C[C@H]2C(=O)N(c3ccccc3)C[C@@H]2C)cc1`, the Potency is reported as inconclusive [inhibitor, partial curve, poor fit].
In the case of `CCCN(CC(=O)Nc1ccccc1OC)C(=O)c1ccncc1`, the “activity change, negative = growth inhibition” value is reported as inactive: -4.76%.
In the case of `O=C(CCc1ccccc1O)NC1CCCc2ccccc21` (configuration not stated), the Potency is reported as inconclusive [inhibitor, single point].
With `COc1cc(OC)c(C(=O)Nc2cccc(C(C)=O)c2)cc1OC` the Potency was inconclusive [inhibitor, single point].
For `Cc1nn2c(Nc3ccccc3)c3c(nc2c1-c1ccccc1)CCC3`, the Potency was inconclusive [inhibitor, partial curve].
With `Cc1cc(SCC(=O)NN=C2CCN(C(C)C)CC2)c(C)cc1Br` the “activity change, negative = growth inhibition” value was inactive: -25.8%.
With `Cc1nc2c(O)c3c(c(O)c2nc1C)C1C=CC3CC1` the Potency was active: 0.517 µM.
In the case of `Cc1cccc(NC(=O)c2ccc(CNS(=O)(=O)c3ccc4c(c3)C(C)(C)C(=O)N4C)cc2)c1`, the Potency is reported as active: 11.6 µM.
For `COc1ccc(-c2sc3ccc(N4CCOCC4)cc3c2C#Cc2ccsc2)cc1`, the Potency was inconclusive [inhibitor, single point].
For `O=C(CCC1N=C2c3ccccc3N=C(SCC(=O)Nc3ccc(F)cc3)N2C1=O)NCc1cccs1` (configuration not stated), the Potency was active: 14.6 µM.
For `CCOC(=O)c1ccccc1NC(=O)C1CC(=O)N(C2CCCC2)C1` (configuration not stated), the “activity change, negative = growth inhibition” value was inactive: -17.1%.
In the case of `CCOc1ncccc1C(=O)Nc1ccc(OC)c(S(=O)(=O)N2CCCCC2)c1`, the Potency is reported as inconclusive [inhibitor, single point].
In the case of `O=C(Cc1noc2ccccc12)Nc1ccc(Cl)cc1`, the Potency is reported as inconclusive [inhibitor, single point].
With `Cc1ccc(N2CCN(C(=O)NCc3noc4ccc(C)cc34)CC2)c(C)c1` the Potency was inconclusive [inhibitor, single point].
In the case of `Cc1ccccc1C(=O)N(Cc1ccc(N(C)C)cc1)CC1CCCO1` (configuration not stated), the Potency is reported as inconclusive [inhibitor, single point].
With `Cc1ccc(S(=O)(=O)N[C@H](C(=O)Oc2ccc3c(C(F)(F)F)cc(=O)oc3c2)c2ccccc2)cc1` the Potency was inconclusive [inhibitor, single point].
For `Cc1cc(SCc2ccc(Cl)cc2Cl)nc(=O)[nH]1`, the Potency was active: 10.3 µM.
In the case of `CCN1CCC2(CC1)C(C#N)=C(N)Oc1c2sc2nc(C)cc(C)c12`, the Potency is reported as inconclusive [inhibitor, single point].
In the case of `CSc1cccc(NC(=S)N(CCCN2CCCC(C)C2)Cc2cccs2)c1` (configuration not stated), the Potency is reported as inconclusive [inhibitor, single point].
With `COc1ccc(CNC(=O)CN(C(=O)Cn2nnc(-c3ccccc3F)n2)c2ccc(C)cc2)cc1` the “activity change, negative = growth inhibition” value was inactive: 16.3%.
In the case of `CC(NC(=O)COC(=O)Cn1cc(C(F)(F)F)ccc1=O)c1ccccc1` (configuration not stated), the “activity change, negative = growth inhibition” value is reported as inactive: 3.95%.
With `O=C(CCN1CCN(Cc2ccccc2)CC1)Nc1ccc(OCc2ccccc2)cc1` the Potency was active: 14.6 µM.
For `O=[N+]([O-])c1cc(C(F)(F)F)ccc1Sc1ccc2ccccc2n1`, the “activity change, negative = growth inhibition” value was inactive: -23.8%.
In the case of `COc1cc(=O)n2c(c1C(=O)N(C)Cc1nonc1C)CCN(Cc1ccc(C)cc1C)CC2`, the Potency is reported as inconclusive [inhibitor, single point].
In the case of `COc1ccc(-n2c(N)c(C(=O)NCC3CCCO3)c3nc4ccccc4nc32)c(OC)c1` (configuration not stated), the activity change, negative = growth inhibition is reported as inconclusive: -33.1% [inhibitor].
With `Cn1cc(Br)c(C(=O)Nc2sc3c(c2C(N)=O)CCCC3)n1` the Potency was active: 16.4 µM.
In the case of `CC(C)c1ccc2oc(=O)cc(CN3CCCCC3)c2c1`, the Potency is reported as active: 23.1 µM.
In the case of `O=C(NCCOCCn1c(=O)oc2ccccc21)Nc1cccc(Cl)c1`, the Potency is reported as active: 8.2 µM.
With `CC(=O)Oc1cc(C)cc2oc(=O)cc(-c3ccccc3)c12` the Potency was inconclusive [inhibitor, partial curve].
For `Cc1ccc(C2=NN(C(=S)Nc3ccccc3)C(c3ccco3)C2)cc1` (configuration not stated), the Potency was inconclusive [inhibitor, single point].
With `CCN(CC)S(=O)(=O)c1cccc(C(=O)N/N=C/c2ccc([N+](=O)[O-])o2)c1` the Potency was inconclusive [inhibitor, single point].
For `O=C(O)C(=Cc1ccccc1[N+](=O)[O-])c1ccccc1`, the “activity change, negative = growth inhibition” value was inactive: -12.4%.
With `CC(=O)N(C1=C(Cl)C(=O)c2ccccc2C1=O)c1ccc(C(=O)O)cc1` the Potency was inconclusive [inhibitor, single point].
With `COc1ccc(OCC(=O)Nc2ccccc2C(=O)N2CCCC2)cc1` the “activity change, negative = growth inhibition” value was inactive: -22.6%.
For `Cn1c(=O)[nH]c(=O)c2c1nc(CN1CCN(c3cccc(Cl)c3)CC1)n2CCCc1ccccc1`, the Potency was inconclusive [inhibitor, single point].
In the case of `COc1ccccc1NC(=O)CSC1=Nc2ccccc2C2=NC(CC(=O)NCc3ccc4c(c3)OCO4)C(=O)N12` (configuration not stated), the Potency is reported as inconclusive [inhibitor, single point].
With `Cc1cccc(C(=O)OCC(=O)N(C)CC(=O)Nc2ccc(Cl)c(C(F)(F)F)c2)c1` the Potency was inconclusive [inhibitor, single point].
